# From PMC4336329 (PLoS ONE, 2015)
# About 2,200 (0.71%) of roughly 310,000 compounds showed an effect of 50% or more. The effect is printed as a negative number. This is one part of the list.
# Biological target: human ether-à-go-go-related gene (hERG) potassium channel (human, UniProt Q12809)
# Experiment: primary screen, population patch clamp on CHO cells stably expressing hERG
# Sequence of human ether-à-go-go-related gene (hERG) potassium channel (Q12809 whole entry, looked up): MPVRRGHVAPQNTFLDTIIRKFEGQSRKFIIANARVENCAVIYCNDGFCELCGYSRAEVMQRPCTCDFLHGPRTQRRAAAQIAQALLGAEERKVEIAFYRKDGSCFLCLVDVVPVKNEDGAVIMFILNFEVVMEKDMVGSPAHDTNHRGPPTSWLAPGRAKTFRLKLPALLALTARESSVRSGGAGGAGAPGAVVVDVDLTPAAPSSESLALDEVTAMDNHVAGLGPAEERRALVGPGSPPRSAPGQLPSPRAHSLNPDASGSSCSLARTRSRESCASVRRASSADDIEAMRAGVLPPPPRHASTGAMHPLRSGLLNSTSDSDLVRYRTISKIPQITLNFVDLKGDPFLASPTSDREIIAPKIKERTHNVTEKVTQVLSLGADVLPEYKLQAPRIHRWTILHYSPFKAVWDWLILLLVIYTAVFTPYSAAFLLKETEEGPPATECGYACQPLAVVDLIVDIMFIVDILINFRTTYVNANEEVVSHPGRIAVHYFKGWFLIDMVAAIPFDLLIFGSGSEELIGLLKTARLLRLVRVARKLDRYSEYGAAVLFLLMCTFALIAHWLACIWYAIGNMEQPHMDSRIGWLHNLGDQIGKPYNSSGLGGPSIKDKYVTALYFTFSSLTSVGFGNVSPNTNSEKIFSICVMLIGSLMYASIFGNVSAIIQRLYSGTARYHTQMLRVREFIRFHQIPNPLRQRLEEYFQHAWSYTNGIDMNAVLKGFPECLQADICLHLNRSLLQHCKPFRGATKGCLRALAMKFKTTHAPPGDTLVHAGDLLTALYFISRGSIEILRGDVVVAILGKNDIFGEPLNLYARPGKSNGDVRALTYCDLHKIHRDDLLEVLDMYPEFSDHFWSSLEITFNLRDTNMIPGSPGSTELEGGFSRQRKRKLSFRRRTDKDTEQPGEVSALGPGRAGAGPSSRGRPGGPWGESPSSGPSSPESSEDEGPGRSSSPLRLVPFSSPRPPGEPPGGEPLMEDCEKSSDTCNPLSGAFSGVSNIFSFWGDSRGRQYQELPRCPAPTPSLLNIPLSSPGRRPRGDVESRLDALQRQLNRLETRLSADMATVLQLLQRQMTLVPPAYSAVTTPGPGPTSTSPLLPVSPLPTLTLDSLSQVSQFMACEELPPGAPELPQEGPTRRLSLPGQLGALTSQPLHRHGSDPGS
row,Compound,"hERG current change (%, negative = inhibition) at 1uM [%]"
1,O=C(CNc1cccc2ccccc12)N/N=C/C=C/c1ccco1,4.13
2,COc1cccc(NC(=O)CN2C(=O)NC(C)(CC(C)C)C2=O)c1 (stereo not shown),11.4
3,CCCCOC(=O)c1ccc(NC(=O)CSC2=Nc3ccccc3C3CC=NN23)cc1 (stereo not shown),19.2
4,O=C(CN(Cc1ccc(F)cc1)C(=O)CCC(=O)Nc1ccccn1)NCc1ccco1,-3.24
5,CCN(CC)S(=O)(=O)c1ccc(N2CCCC2)c(NC(=O)Cc2c(F)cccc2Cl)c1,12.7
6,NC(=O)COC(=O)c1c2c(nc3ccccc13)CCC2,16.2
7,COc1ccc(C2=Nn3c(nnc3-c3ccc(OC)cc3)SC2)cc1,-23.1
8,CCOCCCN1C(=O)CN(C2CCC(C)CC2)C(=O)C1c1ccc(C)cc1 (stereo not shown),0.255
9,COc1ccc(S(=O)(=O)N2CCC3(CC2)CC(=O)c2ccccc2O3)cc1OC,15.2
10,CCOC(=O)C1CCN(S(=O)(=O)c2cc(Cl)c(C)cc2OC)CC1,3.53
11,CCOc1ccc2nc(NC(=O)C3CCN(C(=O)c4ccco4)CC3)sc2c1,10.8
12,COC(=O)c1cc2ccsc2n1Cc1ccccc1F,-2.01
13,O=C(CSc1nc2c(c(=O)n1-c1ccc(Cl)cc1)SCC2)N1CCCC1,3.91
14,CN1CCN(c2ccc(NC(=O)Cc3ccccc3)cc2)CC1,7.46
15,CCC(=O)N1CCc2cc(S(=O)(=O)N3CCc4ccccc43)ccc21,4.8
16,COCCCNc1nc2nonc2nc1N(C)CC1CCCN1C (stereo not shown),7.38
17,COc1ccc(C(=O)NC(=S)Nc2cccc3cc(O)ccc23)cc1OC,14.1
18,COc1ccc(NC(C)=O)cc1NC(=O)CN1CCN(CC(=O)Nc2ccccc2Cl)CC1,-14.3
19,CCn1c(CC(=O)Nc2ccccc2F)nnc1SCC(=O)Nc1nncs1,6.77
20,CCOc1ccc(N2C(=O)CC(=O)NC2=O)cc1,16.5
21,Cn1nc(C(F)(F)F)c(-c2ccc(Br)cc2)c1NC(=O)c1nccnc1C(=O)O,15.8
22,COc1cccc(NC(=O)N2CCC(C(N)=O)(N3CCCCC3)CC2)c1,8.81

row,Compound,"hERG current change (%, negative = inhibition) at 1uM [%]"
1,O=C(CSc1ccc(-c2ccccn2)nn1)c1ccc(F)cc1,10.7
2,Cc1ccc(CNC(=O)Cn2cncn2)cc1,12.4
3,Cc1ccc(S(=O)(=O)N2CC[C@@H]2C(=O)O)cc1,9.58
4,CCc1ccc(-c2cc(C)no2)cc1S(=O)(=O)NCc1ccc(OC)c(OC)c1,11.9
5,CCN(c1ccc(C)c(C)c1)S(=O)(=O)c1c(C)[nH]c(=O)[nH]c1=O,14.9
6,Cc1[nH]c(=S)c(C#N)c(C)c1C(=O)Nc1ccccc1,13
7,CCCCN(CC)CCNC(=O)c1cc2c(-c3ccccc3F)nn(C)c2s1,-0.295
8,O=[N+]([O-])c1cc(-c2ncccn2)cs1,8.85
9,O=C1c2ccccc2NC(c2cn[nH]c2-c2ccc(Cl)cc2)N1O (stereo not shown),6.82
10,O=C(CCc1ccc(Oc2cc([N+](=O)[O-])cc([N+](=O)[O-])c2)cc1)NC1CCCC1,0.484
11,CCOc1ccc(N2C(=O)C(=O)/C(=C(/O)c3ccccc3)C2c2ccccc2[N+](=O)[O-])cc1 (stereo not shown),15
12,CN(CC(=O)Nc1ccc(SC(F)F)cc1)C1CCCCC1,-41.9
13,CC(=O)C12C3C4C(C5C1C3C5(Br)C41OCCO1)C21OCCO1 (stereo not shown),12.4
14,Nc1c(Cl)ncnc1NCCc1ccc(O)cc1,9.02
15,CC(=O)c1cccc(NC(=O)NNC(=O)c2ccc(Cl)cc2Cl)c1,8.81
16,CC(=O)c1cc(C#N)c(SCC(=O)Nc2nccs2)nc1C,18.9
17,CCSc1nnc(-c2ccc(Cl)cc2Cl)o1,15.5
18,CS(=O)(=O)N1CCN(c2ccccc2[N+](=O)[O-])CC1,10.7
19,Cc1nnsc1C(=O)NC1CCCc2c1cnn2-c1ccc(F)cc1F (stereo not shown),18.2
20,CCOC(=O)c1ccc(NS(=O)(=O)c2cc(-c3nnnn3CC)ccc2OC)cc1,13.7
21,COc1ccccc1/C=C/C=N\N1CCN(Cc2ccccc2Cl)CC1.Cl,8.19
